Test results as given in the RNAGym collection of RNA variant scans (doi:10.7554/elife.90254).
Read counts are not given, so values of variants with three or more changes are uncertain.

B1: LINE1-mini (parent)
chain: GGCAGAGCUCAACACAGCGUGGCAAAGUGGCUGUGGCUAGACUGCC

Variants of: B1
Assay: self-cleavage, relative activity (ratio to wild type); higher = more cleavage; in vitro, sequencing; the parent is a self-cleaving ribozyme

Variant	self-cleavage
G7C C18U G40U	0.19
G21A U28A C31U G44U	0.16
C10U A11C G19A G33U G44U	0.01
A4G G36U G40U U43A C45U	0.03
C8U G17C A26U U32A G40C C42A	0.06
C3G G35C A39C	0.02
C10U A12C C18A C31A	0.06
C3G A4U A25U U28C G35A U38A A41G	0.01
G30A C37U C42A	0.11
C18A A24C G29U G36U	0.13
A11C C18A U32G	0.01
G2A C15A U34C A41C	0.03
A14U G19U C31U U34A A41C C45A	0
A6G C15G C42U	0.02
G7U A24G U28A	0.04
C13U G30C G33A G35A C42G	0.04
A14G G22U U34C	0.83
G19A C23U G27C G29U G30C	0.99
G1A C8A C42A U43C	0.25
A6C G22U A24G U28C	0.18
G1A G7U G17C	0.09
C10A G35U A41U	0.07

Variant	self-cleavage
G1U G19C U20G C31A C42U	0.02
G19U G22A U34A	0.18
G7A U34A C45G	0.05
A4G A11U A25U G27A G40U	0.02
C13G G29A A39U G40U U43A	0.09
C13A G33C G36A U38G	0
A6U C8G G40C C45U	0.08
G22U A24U A41G	0.13
A24C G33C G36A	0.03
C10A A26G C42A	0.01
C18A G19A A25U	1.18
C3G C8A A11U G21C G36A	0.01
G2C C13G A14C A25U A26C G29U U43C	0.02
C3A U34A G44U	0.2
A12C G40U U43G G44U	0.01
G2A C18G U28G G44A	0.12
U9C A12C G27A A41C U43A	0.01
G29C U32A U34A A41C	0.09
G7U A11G A14C G40C	0.02
G22U C37A A39C	0.18
C13U C15A A41G	0.16
C18U G44U C46G	0.03

Variant	self-cleavage
C10A A11G C15A	0.03
C18U G19C G22C	0.32
C18A G22U G44C	0.25
C8G G29C A39G C45U	0
C23A U43A C46A	0.2
A16C G30A A39C G40U	0.04
G2U G40C C46U	0
G2U A6C C23A U38A	0.01
C3U A6C U38A	0.07
C13U C18G A24G U38C G40C C45U	0.05
G22U G27U A39U	0.66
A11U G21U G40C	0.01
G22U C45A C46U	0.24
G22U C23A G35U U43C G44A	0.09
G17U C31U U32C	0.04
C13U A14G A16C C18U U32G	0.02
U9C C31A U43C	0.03
A6C A11U G35U	0.06
G1C C10A G36A U38C	0
A14C C15U C31U G33U U34C	0.11
U32C A39G G44C	0.12
A6U A26U G27U G30U U32G G36U U38A	0.07

Variant	self-cleavage
A12U G21C A26U C45U	0.14
A6G C8A U9A G22A U32G	0.1
A6U C10A G44U	0.03
C3A A4U C8G A11U	0.01
A25U U32G G35A A41C	0.2
A4G C10A C13G U43A C46G	0.01
U20G G30C C31U	0.41
C18U G35A C46G	0.02
C10A G22A G44A	0.02
G5A A12U C15U U28G U34A	0.01
G1U A16U C45A C46G	0.02
G36U C37A U38A C45G	0.76
C13A C45G C46U	0.12
U9C A16C G22U	0.03
U9C G35U U43C C46U	0.31
C8A C10A G30C A41U	0.02
G19A U20A G29U C37U	0.03
G1U G17U G44A	0.04
C3A G5U C18U U32A U38G A39U C42A	0.02
G21U G29U G35U C37G G40A	0
A25G G29C G30A A41G	0.11
C31G U34C C45A	0.02

Variant	self-cleavage
G2C A16U G22C	0.02
C3G G5U A12C C42G C46G	0.01
G5U A6C C23U A25C	0.02
G19U C42U C45A	0.03
A26C U28G C37U G44C	0.09
A14G G29A A39U A41U	1.07
A6U A16C U20A G21U G33A	0.08
C10G G21C A39U	0.08
C10G C13G C18A	0.03
C8A U9G C31G	0.03
C15U C18U G19U C23A	1.02
U20A G33U C45U	0.05
C13A G17C U20G	0.1
U9G C13U C15A C18G	0.1
G2C C10A C23U G29U C45U	0.01
A26C G30C C31A G40U	0.03
G1C C13U G44A	0.03
A6C A16G G21C C31U C37A	0.02
G7A C18U G35A C42A	0.11
G2A G17C G44A C46A	0.02
G5U A6C A24C U28G A39G	0.02
G1U A6C A24C C31G	0.03

Variant	self-cleavage
C23G C31U A39U C45A	0.01
C3G U9A C10A A16U	0
G7U C8G A25C G27C G40U	0.13
G1A C3A C23A G40C C46G	1.6
G5U G17A C45A	0.04
A6C A16C A26G G44A	0.03
C8U C18A G36A C37G	0.27
G7C A12U U38A	0.09
G7A C15U C23U A41G	0.09
C8U C15U C23A C42G	0.13
U9A C10U C46A	0.08
G27A U32A C37U G40A G44U	0.09
A14C U38C G44U	0.09
A12G C13G C18G U43C	0.01
G2C C8U C15G	0.13
G17U C18U A26C G33A	0.09
G21A C23A A25U G27C U32A C46A	0.35
G2C A25G U34A	0.11
U9G A11C U20G U28G G33C G40A	0.01
G1U C15A U20A	0.07
G17A U32G G36U	0.01
